According to the supplement of paper PMC3334620:
In all, about 33,000 sequences were measured (“E-score (-0.5 to 0.5)”: median about -0.053, highest 2% from about 0.37 on). The list shows a part of the results.

The sequences below were run against Hap1 (UniProt P0CE41) (assay: PBM E-score (8-mer binding enrichment) (E-score (-0.5 to 0.5)); higher = stronger / more preferred TF binding; most listed sequences are background and not binding sites). Conditions: protein concentration: 200 nM; construct: GST-DNA-binding domain.
How it was run: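 For each ungapped eight-base word taken together with its reverse complement, the Universal PBM Analysis Suite assigned an E-score. Binding data came from GST-tagged yeast transcription factors, applied at about 100-200 nM, on universal all-10-mer Agilent arrays made double-stranded by primer extension. Fluorescent anti-GST marked bound protein, and scans were normalised with masliner.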

Sequence of UniProt P0CE41 (P0CE41 whole entry, the tested form may be a part): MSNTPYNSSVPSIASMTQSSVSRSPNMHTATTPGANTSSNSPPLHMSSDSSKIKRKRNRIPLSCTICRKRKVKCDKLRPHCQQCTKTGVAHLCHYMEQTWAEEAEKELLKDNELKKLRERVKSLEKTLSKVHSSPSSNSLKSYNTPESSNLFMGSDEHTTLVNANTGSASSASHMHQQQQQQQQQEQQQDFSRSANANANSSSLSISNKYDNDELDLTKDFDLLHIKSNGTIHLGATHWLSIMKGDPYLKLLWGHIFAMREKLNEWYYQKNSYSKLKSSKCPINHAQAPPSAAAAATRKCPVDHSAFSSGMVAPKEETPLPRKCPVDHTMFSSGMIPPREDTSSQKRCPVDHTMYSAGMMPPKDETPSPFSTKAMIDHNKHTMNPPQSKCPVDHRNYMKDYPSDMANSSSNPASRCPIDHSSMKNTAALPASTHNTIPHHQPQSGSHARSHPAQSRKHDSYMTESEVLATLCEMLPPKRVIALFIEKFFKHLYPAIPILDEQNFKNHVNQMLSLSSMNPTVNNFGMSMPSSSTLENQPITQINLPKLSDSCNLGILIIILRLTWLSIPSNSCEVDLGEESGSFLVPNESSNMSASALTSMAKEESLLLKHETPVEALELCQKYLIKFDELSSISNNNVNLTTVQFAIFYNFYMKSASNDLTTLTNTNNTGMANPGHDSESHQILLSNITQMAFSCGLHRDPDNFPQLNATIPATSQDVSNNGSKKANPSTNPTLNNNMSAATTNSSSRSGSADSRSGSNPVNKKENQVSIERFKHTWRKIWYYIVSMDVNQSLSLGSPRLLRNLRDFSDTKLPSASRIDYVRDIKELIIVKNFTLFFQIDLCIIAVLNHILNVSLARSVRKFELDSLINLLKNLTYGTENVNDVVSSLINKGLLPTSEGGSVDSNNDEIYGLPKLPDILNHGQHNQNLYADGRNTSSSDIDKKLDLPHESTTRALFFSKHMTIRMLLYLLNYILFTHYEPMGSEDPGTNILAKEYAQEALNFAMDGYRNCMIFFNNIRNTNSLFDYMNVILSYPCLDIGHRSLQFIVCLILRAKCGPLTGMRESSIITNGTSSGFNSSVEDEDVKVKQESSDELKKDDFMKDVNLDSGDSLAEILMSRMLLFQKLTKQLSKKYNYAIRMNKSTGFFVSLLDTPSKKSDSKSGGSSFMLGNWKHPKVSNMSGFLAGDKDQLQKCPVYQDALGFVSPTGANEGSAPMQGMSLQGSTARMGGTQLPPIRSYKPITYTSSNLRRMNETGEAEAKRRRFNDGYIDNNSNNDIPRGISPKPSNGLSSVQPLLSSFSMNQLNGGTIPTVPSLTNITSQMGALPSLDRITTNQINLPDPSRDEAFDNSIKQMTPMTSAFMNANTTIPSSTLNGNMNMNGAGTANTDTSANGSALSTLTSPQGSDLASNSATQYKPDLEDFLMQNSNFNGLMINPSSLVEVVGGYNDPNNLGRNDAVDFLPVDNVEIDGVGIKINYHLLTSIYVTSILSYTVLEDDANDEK

Q: For GGGGGACA, which “PBM E-score” value is on record?
A: -0.0444

Q: Which “PBM E-score” value does the source give for GGTGTGGA here?
A: -0.00568

Q: With CATTCACG as the sequence, how does the “PBM E-score” value read?
A: -0.0195

Q: How did the “PBM E-score” value turn out when GGACCTAA was run?
A: 0.371

Q: For CAGTAACC, which “PBM E-score” value is on record?
A: 0.0446

Q: For GGTTATCA, which “PBM E-score” value is on record?
A: -0.119

Q: AACTTTGT was tested. Which “PBM E-score” value did it give?
A: 0.0406

Q: With CTTCTGGC as the sequence, how does the “PBM E-score” value read?
A: -0.347

Q: How did the “PBM E-score” value turn out when ATTCCCCA was run?
A: -0.074

Q: Which “PBM E-score” value does the source give for CACGGGCA here?
A: -0.0139

Q: TGCAACCA was tested. Which “PBM E-score” value did it give?
A: -0.257

Q: GTGGTGAA was tested. Which “PBM E-score” value did it give?
A: -0.0351

Q: With CCTGGACA as the sequence, how does the “PBM E-score” value read?
A: -0.148

Q: How did the “PBM E-score” value turn out when CCTAGTAC was run?
A: -0.198

Q: Which “PBM E-score” value does the source give for CCAGGCAA here?
A: -0.0424

Q: For CTGCACCA, which “PBM E-score” value is on record?
A: -0.16

Q: With CTTTTGTA as the sequence, how does the “PBM E-score” value read?
A: -0.0575

Q: Which “PBM E-score” value does the source give for AGCGAGAC here?
A: 0.0175

Q: CTCATGCC was tested. Which “PBM E-score” value did it give?
A: -0.0358

Q: With ACGACGGG as the sequence, how does the “PBM E-score” value read?
A: -0.0752

Q: With AATCTGAT as the sequence, how does the “PBM E-score” value read?
A: -0.0367

Q: For TGGCTCAA, which “PBM E-score” value is on record?
A: -0.316

Q: Which “PBM E-score” value does the source give for CCTCTTAC here?
A: -0.187

Q: How did the “PBM E-score” value turn out when CGTTCAAA was run?
A: 0.0352

Q: How did the “PBM E-score” value turn out when CATTGCGA was run?
A: -0.149

Q: Which “PBM E-score” value does the source give for AGTTCCTG here?
A: -0.178

Q: For CATTGAGA, which “PBM E-score” value is on record?
A: -0.153

Q: GGATTCCC was tested. Which “PBM E-score” value did it give?
A: 0.12

Q: Which “PBM E-score” value does the source give for GGGTTAAC here?
A: 0.272

Q: AGCAAACA was tested. Which “PBM E-score” value did it give?
A: -0.0267

Q: CAGCGTCA was tested. Which “PBM E-score” value did it give?
A: -0.117

Q: Which “PBM E-score” value does the source give for CCAGGTCA here?
A: -0.134

Q: With CCCTAGCA as the sequence, how does the “PBM E-score” value read?
A: -0.159

Q: How did the “PBM E-score” value turn out when GCTCTGCC was run?
A: -0.0514

Q: CGACGAAG was tested. Which “PBM E-score” value did it give?
A: 0.0792

Q: Which “PBM E-score” value does the source give for CTATAGAC here?
A: -0.196

Q: How did the “PBM E-score” value turn out when GTGTAGAA was run?
A: -0.299

Q: AGCTTGGG was tested. Which “PBM E-score” value did it give?
A: 0.0943

Q: For GGTTTGCA, which “PBM E-score” value is on record?
A: 0.0506

Q: Which “PBM E-score” value does the source give for ACTACCTA here?
A: -0.0554

Q: For CAGAATGA, which “PBM E-score” value is on record?
A: -0.149

Q: Which “PBM E-score” value does the source give for GAAATGAA here?
A: 0.0592

Q: With AACCATTG as the sequence, how does the “PBM E-score” value read?
A: -0.101

Q: Which “PBM E-score” value does the source give for ATCCTTGC here?
A: -0.143

Q: For CCAAAGCA, which “PBM E-score” value is on record?
A: -0.179

Q: With AATTACCC as the sequence, how does the “PBM E-score” value read?
A: 0.0864

Q: How did the “PBM E-score” value turn out when CCAGAACC was run?
A: -0.137

Q: Which “PBM E-score” value does the source give for ACAGCACA here?
A: -0.0588

Q: Which “PBM E-score” value does the source give for CGGCTTTA here?
A: 0.464

Q: With GCCCCGCA as the sequence, how does the “PBM E-score” value read?
A: 0.156

Q: With ACTTAGCT as the sequence, how does the “PBM E-score” value read?
A: -0.152

Q: With ATCTGTAA as the sequence, how does the “PBM E-score” value read?
A: -0.0261

Q: With AACTAACG as the sequence, how does the “PBM E-score” value read?
A: 0.16

Q: For ACCTGTCT, which “PBM E-score” value is on record?
A: -0.139

Q: How did the “PBM E-score” value turn out when GCCTAGGA was run?
A: -0.261

Q: With CTGCTTGC as the sequence, how does the “PBM E-score” value read?
A: -0.0895

Q: CAATTGAG was tested. Which “PBM E-score” value did it give?
A: -0.026

Q: How did the “PBM E-score” value turn out when ACACCCCG was run?
A: 0.204

Q: Which “PBM E-score” value does the source give for ATGGGCAG here?
A: -0.193

Q: With CCCGAAGA as the sequence, how does the “PBM E-score” value read?
A: 0.284

Q: How did the “PBM E-score” value turn out when CCAAACGA was run?
A: -0.0424

Q: For TACGGCCA, which “PBM E-score” value is on record?
A: 0.102

Q: How did the “PBM E-score” value turn out when GCGAGAAC was run?
A: 0.0534

Q: How did the “PBM E-score” value turn out when GCATCCGA was run?
A: 0.291

Q: Which “PBM E-score” value does the source give for AGTCGACC here?
A: 0.0627

Q: CGGACTGA was tested. Which “PBM E-score” value did it give?
A: 0.317

Q: With GTAACACA as the sequence, how does the “PBM E-score” value read?
A: -0.12

Q: Which “PBM E-score” value does the source give for CGCCCCTA here?
A: 0.248

Q: AACAGTAG was tested. Which “PBM E-score” value did it give?
A: -0.178

Q: For ACGACGTC, which “PBM E-score” value is on record?
A: -0.0537

Q: CAAGAGAA was tested. Which “PBM E-score” value did it give?
A: 0.0187

Q: How did the “PBM E-score” value turn out when CGTACTGA was run?
A: 0.0686

Q: With GGACTAAA as the sequence, how does the “PBM E-score” value read?
A: 0.195

Q: For CGATCGGC, which “PBM E-score” value is on record?
A: 0.312

Q: How did the “PBM E-score” value turn out when AAAGTCGC was run?
A: 0.136

Q: AATCAGAG was tested. Which “PBM E-score” value did it give?
A: -0.168

Q: Which “PBM E-score” value does the source give for ATCTATCG here?
A: 0.268

Q: How did the “PBM E-score” value turn out when ACGGAGCT was run?
A: 0.313

Q: For ATTTTCTG, which “PBM E-score” value is on record?
A: -0.149

Q: For AAGCCCCA, which “PBM E-score” value is on record?
A: -0.133

Q: With ATAACTGC as the sequence, how does the “PBM E-score” value read?
A: -0.0204

Q: For AGCAAGTC, which “PBM E-score” value is on record?
A: -0.153

Q: With ACCGCACA as the sequence, how does the “PBM E-score” value read?
A: -0.00108

Q: With ACCTATTC as the sequence, how does the “PBM E-score” value read?
A: 0.0747

Q: For AAAGGCTA, which “PBM E-score” value is on record?
A: -0.238

Q: For GATTCTAA, which “PBM E-score” value is on record?
A: -0.0294

Q: AAATCGGA was tested. Which “PBM E-score” value did it give?
A: 0.344

Q: With GTCATTGA as the sequence, how does the “PBM E-score” value read?
A: -0.13

Q: AAGTCCGG was tested. Which “PBM E-score” value did it give?
A: 0.47

Q: AGTAAGAG was tested. Which “PBM E-score” value did it give?
A: -0.23

Q: With CACACCGC as the sequence, how does the “PBM E-score” value read?
A: 0.0566

Q: With AACATAGG as the sequence, how does the “PBM E-score” value read?
A: -0.125

Q: For TAAACTGA, which “PBM E-score” value is on record?
A: -0.0405

Q: With GCGTCACA as the sequence, how does the “PBM E-score” value read?
A: -0.306

Q: How did the “PBM E-score” value turn out when ACGTCGGC was run?
A: 0.267

Q: Which “PBM E-score” value does the source give for CCTCCAAA here?
A: -0.145

Q: For ACGCTCGA, which “PBM E-score” value is on record?
A: -0.125

Q: For AGTTGTAG, which “PBM E-score” value is on record?
A: -0.0558

Q: Which “PBM E-score” value does the source give for GCTGCGCA here?
A: 0.0488

Q: How did the “PBM E-score” value turn out when ACAAGGGA was run?
A: -0.263

Q: How did the “PBM E-score” value turn out when GCTAAGTA was run?
A: 0.0488

Q: With CCTTTGCA as the sequence, how does the “PBM E-score” value read?
A: -0.207

Q: For AGCTGACA, which “PBM E-score” value is on record?
A: 0.0168

Q: Which “PBM E-score” value does the source give for AGCGGCCT here?
A: 0.0176

Q: For CCGTATTC, which “PBM E-score” value is on record?
A: 0.0767

Q: With CCGTTAGG as the sequence, how does the “PBM E-score” value read?
A: 0.283

Q: With AGGCCAAT as the sequence, how does the “PBM E-score” value read?
A: -0.024

Q: How did the “PBM E-score” value turn out when AGCTAACA was run?
A: -0.238

Q: With CAATAGAC as the sequence, how does the “PBM E-score” value read?
A: -0.114

Q: Which “PBM E-score” value does the source give for ATCCCTAC here?
A: 0.008
